In PubChem BioAssay AID360 (National Center for Advancing Translational Sciences (NCATS), 2006) one finds Potency data, which are given here for 58 compounds.

Among all 48,000 compounds or so, about 550 (1.1%) were called active. Roughly 4% stayed inconclusive and do not appear here. Cut-off read from the data, not from the text of the source: active = potency below about 15 µM; inconclusive = mostly about 16 µM to 33 µM; inactive = weaker than that. This is one part of the list. Bounds are passed on as bounds.
Potency is the fitted concentration of half-maximal effect.

The target in the test is Lysosomal acid glucosylceramidase (Homo sapiens) (UniProt P04062). The experiment in a line: Glucocerebrosidase.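 Note: the screen sought inhibitors.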 Particulars: purified enzyme, resorufin glucoside fluorescence (screen aimed at inhibitors), 20 min. In short, it runs like this: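 Normal human glucocerebrosidase (0.2 nM final) was assayed with resorufin β-D-glucopyranoside (30 uM final) in 50mM citric acid/KH2PO4, 10mM sodium taurocholate, 0.01% tween-20, pH 5.9. Compounds were titrated; fluorescence (Ex 548, Em 600) read after 20 min at RT.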
Chain of UniProt P04062 (P04062 whole entry, looked up): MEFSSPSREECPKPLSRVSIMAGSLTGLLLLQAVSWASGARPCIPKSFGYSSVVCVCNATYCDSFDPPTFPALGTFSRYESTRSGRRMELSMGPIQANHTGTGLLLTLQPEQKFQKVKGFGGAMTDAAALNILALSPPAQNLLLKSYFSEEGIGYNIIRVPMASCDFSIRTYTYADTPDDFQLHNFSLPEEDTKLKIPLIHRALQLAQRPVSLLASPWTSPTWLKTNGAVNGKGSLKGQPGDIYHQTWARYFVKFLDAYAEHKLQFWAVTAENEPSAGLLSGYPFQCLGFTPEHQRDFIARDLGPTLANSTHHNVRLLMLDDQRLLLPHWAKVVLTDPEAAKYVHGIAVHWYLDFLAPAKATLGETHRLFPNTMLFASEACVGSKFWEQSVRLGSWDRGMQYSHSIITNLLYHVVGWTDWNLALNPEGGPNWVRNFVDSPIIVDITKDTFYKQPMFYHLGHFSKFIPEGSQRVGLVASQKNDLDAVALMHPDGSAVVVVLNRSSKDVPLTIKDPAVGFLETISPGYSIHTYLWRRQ
As to `Cc1nn(Cc2ccccc2)c(C)c1NC(=O)CSc1nc2sc3c(c2c(=O)n1C)CCC3`, the Potency is inactive: > 76.9 µM.

With `O=C(NCc1cccnc1)c1ccccn1`, the Potency is inactive: > 76.9 µM.

Turning to `COC(=O)Nc1ccc(C)c(NC(=O)OC)c1`, the Potency was inactive: > 76.9 µM.

Take `CC(C)c1ccc(NC(=O)CCNS(=O)(=O)c2cccc3nonc23)cc1`: the Potency was inactive: > 76.9 µM.

`CCCC(=O)Nc1ccc(N2CCN(C(=O)c3ccccc3C)CC2)cc1`: the Potency is inactive: > 76.9 µM.

In the case of `COc1cc(C2c3c(oc4ccc(C)cc4c3=O)C(=O)N2c2cc(C)ccn2)cc(OC)c1OC` (stereo not drawn), the Potency was inactive: > 76.9 µM.

In the case of `O=C(OCC1CCCN2CCCCC12)c1ccc2c(c1)OCO2` (stereo not drawn), the Potency was inactive: > 76.9 µM.

Consider `C=CCn1c(SCn2nnc3ccccc3c2=O)nnc1C1CCCCC1`, for which the Potency is inactive: > 76.9 µM.

Regarding `CCN(CC)CCN1C(=O)C(O)=C(C(=O)c2ccc(C)o2)C1c1ccccn1` (stereo not drawn), the Potency is inactive: > 76.9 µM.

On to `CCOC(=O)C1CCN(CC(O)COc2ccc(C(C)(C)C)cc2)CC1` (stereo not drawn), for which the Potency is inactive: > 76.9 µM.

As for `CCCCN(C(=O)c1c(C)[nH]c(C(=O)OCC)c1C)c1ccccc1`, the Potency is inactive: > 76.9 µM.

For the compound `NC(=O)CN(c1ccccc1)C1SC(=O)N(Cc2ccccc2)C1=O` (stereo not drawn), the Potency is inactive: > 76.9 µM.

Take `CCSc1ccccc1C(=O)Nc1nncs1`: the Potency entry is “inactive”.

With `CCn1c(SCC(=O)Nc2cccc(F)c2)nnc1-c1cc2cc(Br)ccc2o1`, the Potency was inactive: > 76.9 µM.

Turning to `O=C1CC(c2cc3c(cc2Br)OCO3)C2=C(CCCC2=O)N1` (stereo not drawn), the Potency was inactive: > 76.9 µM.

As for `O=C(CN1C(=O)c2cccc3cccc1c23)N1CCc2ccccc2C1`, the Potency is inactive: > 76.9 µM.

As for `CCn1c(Cc2ccccc2)nnc1SCC(=O)NC(C)(C)C`, the Potency was inactive: > 76.9 µM.

For the compound `COc1ccccc1N1CCN(C(=O)c2ccc(C(C)(C)C)cc2)CC1`, the Potency is inactive: > 76.9 µM.

For the compound `CCn1c(SC/C=C/c2ccccc2)nnc1-c1cccs1`, the Potency was inactive: > 76.9 µM.

With `O=C1CC(c2ccco2)=Nc2ccccc2N1`, the Potency was inactive: > 76.9 µM.

Turning to `C=CCn1c(SCC(=O)c2ccc(O)c(O)c2)nnc1-c1ccccc1OC`, the Potency is inactive: > 76.9 µM.

For the compound `COc1ccc(CCNC(=O)c2ccc3c(=O)n(Cc4ccco4)c(=S)[nH]c3c2)cc1OC`, the Potency entry is “inactive”.

As for `O=C(Nc1ccncc1)Nc1ccccn1`, the Potency was inactive: > 76.9 µM.

Regarding `CN(C)c1nc(OCCOC(=O)COc2ccc(Cl)cc2Cl)nc(N(C)C)n1`, the Potency was inactive: > 76.9 µM.

With `Cc1cc(=S)[nH]c2ccccc12`, the Potency is inactive: > 76.9 µM.

Consider `CCOC(=O)C1CCCN(C(=O)c2cncc(Br)c2)C1` (stereo not drawn), for which the Potency was inactive: > 76.9 µM.

Turning to `CCn1c(SCC(=O)Nc2ccc(N3CCOCC3)c(Cl)c2)nnc1-c1ccc(N)cc1`, the Potency was inactive: > 76.9 µM.

As for `O=C(Nc1cccnc1)c1c(O)c2cccc3c2n(c1=O)CC3`, the Potency was inactive: > 76.9 µM.

`COC(=O)c1sc(S(=O)(=O)N2CCCCC2)c(C(=O)OC)c1C`: the Potency was inactive: > 76.9 µM.

Regarding `CC(C)C(=O)c1cn(CC(=O)NCC2CCCO2)c2ccccc12` (stereo not drawn), the Potency is inactive: > 76.9 µM.

For `OC(c1ccc(Cl)cc1)c1nnc(-c2ccccc2)o1` (stereo not drawn), the Potency is inactive: > 76.9 µM.

For `CN(CC(=O)Nc1nc2ccccc2s1)S(=O)(=O)c1ccccc1`, the Potency was inactive: > 76.9 µM.

For the compound `COc1cc(C2C(C#N)=C(N)OC3=C2C(=O)CCC3)ccc1OC(=O)N1CCOCC1` (stereo not drawn), the Potency was inactive: > 76.9 µM.

In the case of `O=C(Nc1ccc2c(c1)OCO2)c1c(F)cccc1F`, the Potency is inactive: > 76.9 µM.

As to `CCOC(=O)Nc1ccc(S(=O)(=O)Nc2nccc(C)n2)cc1`, the Potency is inactive: > 76.9 µM.

For the compound `N=c1c(S(=O)(=O)c2ccccc2)cc2c(=O)n3ccccc3nc2n1CCN1CCOCC1`, the Potency was inactive: > 76.9 µM.

Regarding `COc1ccccc1NC(=O)c1ccc(COc2ccccc2OC)o1`, the Potency is inactive: > 76.9 µM.

For the compound `O=C(O)CSC1=NCCN1`, the Potency was inactive: > 76.9 µM.

As to `COCCCn1c(SCC(=O)Nc2cccc(C)n2)nnc1-c1ccco1`, the Potency is inactive: > 76.9 µM.

For `CCCn1c2c(c(O)c(C(=O)Nc3ncccc3O)c1=O)CCCC2`, the Potency is inactive: > 76.9 µM.

Consider `Cc1cccc(-n2nnnc2SCC(=O)c2cc(C)n(CC3CCCO3)c2C)c1` (stereo not drawn), for which the Potency is inactive: > 76.9 µM.

Turning to `COc1cc(NS(=O)(=O)c2ccc(NC(=O)CSC3=NCCS3)cc2)nc(OC)n1`, the Potency was inactive: > 76.9 µM.

On to `C=CCc1cccc2cc(C(=O)NC)c(=O)oc12`, for which the Potency was inactive: > 76.9 µM.

On to `COc1ccc(C(=O)Nc2ccc(-c3ccc(C)o3)cc2)cc1S(=O)(=O)N1CCOCC1`, for which the Potency was inactive: > 76.9 µM.

In the case of `O=C(NCCc1ccc(Cl)cc1)C1CCN(S(=O)(=O)c2cccc3nonc23)CC1`, the Potency is inactive: > 76.9 µM.

Take `Cc1cc2oc(=O)cc(COC(=O)Cn3cnnn3)c2cc1C(C)C`: the Potency is inactive: > 76.9 µM.

Take `CC(C)N(C(=O)CSc1nnc(CN2CCCCCC2=O)n1-c1ccccn1)C(C)C`: the Potency was inactive: > 76.9 µM.

For the compound `COc1cccc(-n2c(SCC#N)nnc2-c2cnccn2)c1`, the Potency is inactive: > 76.9 µM.

In the case of `Cc1nn(-c2ccccc2)c(N2CCCC2)c1/C=N/n1cnc2scc(-c3ccccc3)c2c1=O`, the Potency is inactive: > 76.9 µM.

On to `O=C(NC1=NCCS1)c1cccs1`, for which the Potency is inactive: > 76.9 µM.

On to `O=C(NCCCN1CCCCCC1)c1ccc(CS(=O)(=O)Cc2ccccc2F)o1`, for which the Potency was inactive: > 76.9 µM.

As to `c1ccc(OCCCn2nnc(-c3cccnc3)n2)cc1`, the Potency is inactive: > 76.9 µM.

Regarding `CCC1CCCCN1CCNC(=O)c1[nH]c(C)c(C(C)=O)c1C` (stereo not drawn), the Potency was inactive: > 76.9 µM.

`COc1cc(NS(C)(=O)=O)c(OC)cc1NC(=O)c1ccccc1`: the Potency is inactive: > 76.9 µM.

Turning to `Cc1ccc(S(=O)(=O)NCCCN2CCOCC2)cc1C`, the Potency result was “inactive”.

As to `Cc1nn(-c2ccccc2)c(C)c1C(=O)OCC(=O)c1c(N)n(CC(C)C)c(=O)n(C)c1=O`, the Potency was inactive: > 76.9 µM.

On to `COc1ccc(-c2cc(C(=O)Nc3c(C)nn(Cc4ccc(Cl)cc4)c3C)no2)cc1`, for which the Potency was inactive: > 76.9 µM.

With `O=c1nc(C(F)(F)F)nc2ccccn12`, the Potency is inactive: > 76.9 µM.
